Hit rate of the full screen: of about 220,000 compounds, about 5,700 (2.6%) were called active. The shares of active, inactive and inconclusive entries below differ from those in the screen. The call rests on the fitted dose curve; in most records, active means well fitted inhibition curve with a large enough effect; inconclusive means small, poorly fitted or top-dose-only effect; inactive means no such curve, though single readings can be large or run the other way. Potencies of inconclusive entries are doubtful fits and often do not repeat.
The compounds below were run against Lysine-specific demethylase 5B (Homo sapiens) (UniProt Q9UGL1) (assay: Primary screen for KDM5B Histone Demethylases FDH-coupled qHTS). Settings: FDH-coupled NADH fluorescence (FDH is formaldehyde dehydrogenase); activity change, negative = inhibition: at 57.7 µM (top of the series) unless noted.
Sequence of UniProt Q9UGL1 (Q9UGL1 whole entry, looked up): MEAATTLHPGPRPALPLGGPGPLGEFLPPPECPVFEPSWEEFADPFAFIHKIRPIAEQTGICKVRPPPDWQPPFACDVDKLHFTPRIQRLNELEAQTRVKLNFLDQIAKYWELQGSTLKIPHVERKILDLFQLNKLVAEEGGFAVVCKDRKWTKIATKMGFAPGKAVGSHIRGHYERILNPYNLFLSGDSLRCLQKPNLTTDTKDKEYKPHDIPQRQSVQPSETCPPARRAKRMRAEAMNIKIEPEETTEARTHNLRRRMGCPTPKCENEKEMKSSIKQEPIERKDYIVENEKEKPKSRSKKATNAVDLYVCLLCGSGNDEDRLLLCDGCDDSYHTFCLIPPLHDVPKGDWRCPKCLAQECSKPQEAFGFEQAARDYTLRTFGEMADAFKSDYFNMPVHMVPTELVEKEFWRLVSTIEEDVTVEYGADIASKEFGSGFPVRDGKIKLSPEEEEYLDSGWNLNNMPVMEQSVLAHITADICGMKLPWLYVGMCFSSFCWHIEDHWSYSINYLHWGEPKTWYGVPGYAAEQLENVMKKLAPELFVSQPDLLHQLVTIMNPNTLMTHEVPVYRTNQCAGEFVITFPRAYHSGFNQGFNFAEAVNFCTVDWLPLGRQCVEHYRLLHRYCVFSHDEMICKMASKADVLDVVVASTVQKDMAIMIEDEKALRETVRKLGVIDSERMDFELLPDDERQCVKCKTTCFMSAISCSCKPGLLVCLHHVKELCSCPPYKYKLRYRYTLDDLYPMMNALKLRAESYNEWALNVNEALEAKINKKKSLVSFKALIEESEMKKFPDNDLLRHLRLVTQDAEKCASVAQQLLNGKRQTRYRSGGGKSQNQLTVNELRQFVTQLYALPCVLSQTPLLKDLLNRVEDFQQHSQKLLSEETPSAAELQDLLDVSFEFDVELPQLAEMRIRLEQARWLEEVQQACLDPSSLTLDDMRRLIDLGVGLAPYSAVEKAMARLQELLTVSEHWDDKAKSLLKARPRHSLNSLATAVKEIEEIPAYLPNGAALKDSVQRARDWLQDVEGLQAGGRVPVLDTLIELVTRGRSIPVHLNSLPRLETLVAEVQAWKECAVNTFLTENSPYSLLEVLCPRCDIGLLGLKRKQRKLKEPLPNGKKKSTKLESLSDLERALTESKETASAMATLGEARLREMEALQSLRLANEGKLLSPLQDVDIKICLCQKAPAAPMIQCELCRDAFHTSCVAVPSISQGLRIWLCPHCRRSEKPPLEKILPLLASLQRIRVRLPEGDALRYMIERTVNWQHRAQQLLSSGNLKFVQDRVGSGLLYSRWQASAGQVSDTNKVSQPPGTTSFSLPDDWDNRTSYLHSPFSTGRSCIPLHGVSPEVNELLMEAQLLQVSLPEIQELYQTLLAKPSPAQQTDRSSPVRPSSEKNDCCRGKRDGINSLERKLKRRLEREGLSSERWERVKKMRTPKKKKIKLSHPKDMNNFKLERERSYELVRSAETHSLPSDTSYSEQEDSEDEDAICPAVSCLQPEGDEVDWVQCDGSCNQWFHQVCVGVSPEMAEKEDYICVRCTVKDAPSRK
Procedure, shortened: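 qHTS format, multiple compound concentrations. Buffer 50 mM HEPES pH 7.5/0.01% Tween-20; 200 nM KDM5BΔAP final; 10 min compound preincubation; substrate-mix levels 12.5 µM peptide, 25 µM α-KG, 0.25 mM NAD⁺; 30 min RT; ΔRFU.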
Further: nearly all actives have a fitted effect of over 70% in size.
Potency means the concentration at half of the fitted maximal effect; tags describe the fitted curve by direction and shape.
Wherever activity change, negative = inhibition is given: 0% is about no effect.

Question: Which Potency does the source give for CCOC(=O)c1cccc(NC(=O)C2Cc3ccccc3N2C(=O)c2ccccc2)c1 (stereo not given) here?
Answer: inconclusive: 28.2 µM [inhibitor, single point]

Question: With Cc1cccc(CN2CCc3c(n(Cc4cccnc4)n(-c4ccccc4)c3=O)C2)n1 as the compound, how does the Potency read?
Answer: inconclusive: 35.5 µM [inhibitor, partial curve, poor fit]

Question: Which Potency does the source give for O=C1NCCCCCN(C(=O)c2cccs2)[C@@H]2C[C@@H](C(=O)N3CCc4ccccc4C3)C[C@H]12 here?
Answer: inconclusive: 2.24 µM [inhibitor, full curve]

Question: O=C1NCN(Cc2ccc(Cl)cc2)C12CCN(Cc1cccc(C(F)(F)F)c1)CC2 was tested. Which “activity change, negative = inhibition” value did it give?
Answer: inactive: 6.08%

Question: Which Potency does the source give for COc1ccccc1N(CC(=O)NCc1ccco1)S(=O)(=O)c1ccc(C)cc1 here?
Answer: inconclusive: 15.8 µM [inhibitor, partial curve, poor fit]

Question: With COc1ccc2c(C)c(CCC(=O)NCCCO)c(=O)oc2c1C as the compound, how does the Potency read?
Answer: inconclusive: 25.1 µM [inhibitor, partial curve, poor fit]

Question: How did the Potency turn out when CCSc1ccccc1C(=O)Nc1ccc(-c2nc3ccccc3s2)c(O)c1 was run?
Answer: inconclusive: 44.7 µM [inhibitor, single point]

Question: With Cc1ccccc1Cn1c2ccccc2c2cnn(CC(=O)NCc3ccccn3)c(=O)c21 as the compound, how does the Potency read?
Answer: inconclusive: 11.2 µM [inhibitor, partial curve, poor fit]

Question: With O=C(N[C@H](Cc1ccccc1)C1CC(O)C1)c1ccc2nccn2c1 (stereo not given in full) as the compound, how does the Potency read?
Answer: inconclusive: 25.1 µM [inhibitor, partial curve, poor fit]

Question: COc1ccc(C(=S)N2CCN(c3ccccc3Cl)CC2)cc1OC was tested. Which Potency did it give?
Answer: inconclusive: 22.4 µM [inhibitor, single point]

Question: How did the “activity change, negative = inhibition” value turn out when O=C(Nc1ccc(Cl)cc1F)c1ccc(-c2ccccc2)cc1 was run?
Answer: inactive: -5.03%

Question: How did the “activity change, negative = inhibition” value turn out when NCCC/C(=N/O)c1cccs1 was run?
Answer: inactive: 0.3%

Question: How did the Potency turn out when Cc1cc(-c2nnc(CSc3nc4ccc(Cl)cc4[nH]3)o2)c(C)o1 was run?
Answer: inconclusive: 35.5 µM [inhibitor, partial curve, poor fit]

Question: For CCc1ccc(-n2nc(CO)c(C(=O)NCCCc3ccccc3)n2)cc1, which Potency is on record?
Answer: inconclusive: 1.26 µM [inhibitor, full curve, poor fit]

Question: Which “activity change, negative = inhibition” value does the source give for COc1cccn(CC(=O)N(Cc2ccc(F)cc2)C2CCCCC2)c1=O here?
Answer: inactive: -18.8%

Question: How did the Potency turn out when Cc1ccc(C)c(S(=O)(=O)c2nnn3c2nc(NC2CCCCC2)c2sccc23)c1 was run?
Answer: inconclusive: 35.5 µM [inhibitor, partial curve, poor fit]

Question: For Cc1cccc(-n2nc(-c3c(C)nc4scc(CC(=O)NCCc5ccccc5)n4c3=O)cc2C)c1, which Potency is on record?
Answer: inconclusive: 17.8 µM [inhibitor, partial curve, poor fit]

Question: For CCc1nc2cccnc2n1-c1ccc(CC(=O)Nc2cccc(C)c2C)cc1, which Potency is on record?
Answer: inconclusive: 17.8 µM [inhibitor, partial curve, poor fit]

Question: How did the “activity change, negative = inhibition” value turn out when CCC(C)(C)NC(=O)c1ccc2nc(C)c(C)nc2c1 was run?
Answer: inactive: -17.7%

Question: For Cc1ccc(NC(=O)c2cc(S(=O)(=O)N3CCc4ccccc43)cn2C)c(Cl)c1, which Potency is on record?
Answer: inconclusive: 14.1 µM [inhibitor, partial curve, poor fit]

Question: Cc1ccc(-c2n[nH]c(=O)c3ccccc23)cc1S(=O)(=O)N1CCC(C)CC1 was tested. Which “activity change, negative = inhibition” value did it give?
Answer: inactive: 8.85%

Question: For CCOC(=O)c1ccc(NC(=O)c2ncoc2-c2cccc(OC)c2)cc1, which Potency is on record?
Answer: inconclusive: 39.8 µM [inhibitor, single point]

Question: Which Potency does the source give for CCS(=O)(=O)N1CCCc2cc(C(=O)Nc3ccccc3C(=O)OC)ccc21 here?
Answer: inconclusive: 35.5 µM [inhibitor, partial curve, poor fit]

Question: Which “activity change, negative = inhibition” value does the source give for C/C=C/C=C(\NC(=O)c1cccc(C)c1)C(=O)O here?
Answer: inactive: -6.3%

Question: CC(=O)NC1(C)CCN(Cc2ccc(-c3ccc(N4CCOCC4)cc3)cc2)C1 (stereo not given) was tested. Which Potency did it give?
Answer: active: 28.2 µM

Question: Which Potency does the source give for CCOP(=O)(OCC)c1nc(-c2ccccc2)oc1NCc1ccco1 here?
Answer: inconclusive: 25.1 µM [inhibitor, partial curve, poor fit]

Question: How did the Potency turn out when O=C(Cn1c(=O)n(-c2ccc(Cl)cc2)c(=O)c2sc3ccccc3c21)NC1CCCC1 was run?
Answer: inconclusive: 1 µM [inhibitor, partial curve, poor fit]

Question: For Cc1ccc(S(=O)(=O)Cc2ccc(C(=O)N3CCN(c4cccc(Cl)c4)CC3)o2)cc1, which Potency is on record?
Answer: inconclusive: 3.16 µM [inhibitor, partial curve, poor fit]

Question: CC(=O)N1C[C@@H]2CCCN3CCC[C@@H]([C@H]23)[C@H]1CCCC(=O)NCCC(C)C was tested. Which Potency did it give?
Answer: inconclusive: 31.6 µM [inhibitor, partial curve, poor fit]

Question: Which “activity change, negative = inhibition” value does the source give for Cc1occc1-c1nnc(SCC(=O)Nc2ccc3c(c2)OC2(CCCCC2)O3)o1 here?
Answer: inactive: 10.5%

Question: Which activity change, negative = inhibition does the source give for CCOc1ccc(-c2c(C)nn3c(C)c(C(=O)NCCc4ccc(Cl)cc4)cnc23)cc1OCC here?
Answer: inconclusive: -32% [inhibitor]

Question: With O=C(CCN1CCN(c2cnccn2)CC1)Nc1ccccc1Cl as the compound, how does the Potency read?
Answer: inconclusive: 31.6 µM [inhibitor, single point]

Question: CC1(C)CC(=O)C2=C(C1)NC(=S)C(C#N)C21CCCCC1 (stereo not given) was tested. Which Potency did it give?
Answer: inconclusive: 28.2 µM [inhibitor, partial curve, poor fit]

Question: How did the “activity change, negative = inhibition” value turn out when COc1cc(NC(=O)C(=O)NCCc2ccccc2)ccc1N1CCCCS1(=O)=O was run?
Answer: inactive: 3.86%

Question: How did the Potency turn out when O=C(CCC[C@@H]1[C@H]2CCCN3CCC[C@@H](CN1Cc1cccnc1)[C@@H]23)NCc1cccnc1 was run?
Answer: inconclusive: 31.6 µM [inhibitor, single point]

Question: How did the Potency turn out when CN(C)[C@H]1CCCCN(C(=O)c2cn(CCN3CCNCC3)nn2)C1 was run?
Answer: inconclusive: 0.708 µM [inhibitor, full curve, poor fit]

Question: How did the Potency turn out when CCCn1c2ccccc2c2cnn(CC(=O)NCCCN3CCCCC3CC)c(=O)c21 (stereo not given) was run?
Answer: inconclusive: 15.8 µM [inhibitor, partial curve, poor fit]

Question: Cc1nc(N2CCCCC2)n(CC(=O)Nc2cccc(Cl)c2C)c(=O)c1C was tested. Which “activity change, negative = inhibition” value did it give?
Answer: inactive: -6.28%

Question: How did the Potency turn out when COc1ccc(NC(=O)c2cc3c(-c4ccccc4F)nn(C)c3s2)c(OC)c1 was run?
Answer: inconclusive: 39.8 µM [inhibitor, single point]

Question: For Nc1cccn2nc(-c3ccccc3)nc12, which Potency is on record?
Answer: active: 28.2 µM
